# About 540 (0.36%) of roughly 150,000 compounds showed an effect of 50% or more. The list shows a part of the results.
# System: Plasmodium falciparum
# Experiment: Primary screen in NF54 nanoGlo assay, in single point, at 2uM, 72h; a lower Z score goes with more inhibition
# Format: functional, Erythrocyte
# Conditions: timepoint 72 hour
Compound,% Inhibition [%],Z score
Cc1ccc(CCC(=O)N[C@H]2COCC[C@@H]2O)cc1C,0,0.02
COc1ccc2c(c1)Oc1ccccc1N=C2N1CCN(C(=O)Nc2ccc(Cl)cc2)[C@@H](C)C1,-14,1.41
C[C@@H]1CN(C(=O)NCc2ccc(Cl)cc2)C[C@]1(C)O,-8,0.92
Cc1c(C(=O)N2CCC(N3CCCS3(=O)=O)CC2)oc2ccccc12,16,-1.83
Cc1ccc(C)c([C@@H](NCc2ncnn2CCF)c2ccccc2)c1,-4,0.5
COc1ccc(NC(=O)N2C[C@@H]3C[C@H](C2)c2ccc(NS(=O)(=O)c4ccc(OC)cc4)c(=O)n2C3)cc1,-5,0.71
Cc1oc2ncnc(N3CCC[C@H](C(=O)NCc4cccnc4)C3)c2c1C,-1,0.13
Cn1c(-c2n[nH]c3c2CCCC3)nnc1N1CC[C@]2(CNC(=O)C2)C1,-13,1.9
Cc1cccc2c1N(Cc1cnc3cnccn13)CC2,4,-0.37
CC1CCC(NC(=O)CC(F)(F)F)CC1 (stereo unspecified),-16,3.07
CCC[C@H](CC)NC(=O)N1CCN(C(=O)CN2CCOCC2)CC1,-9,1.28
O=C(NCCOc1ccccc1)c1ccc(N2CCC(Cc3ccccc3)CC2)nn1,-12,1.63
CN1CCO[C@@H](C(=O)NC2CCN(Cc3ccccc3)CC2)[C@@H]1c1ccccc1,-8,1.06
CCc1c(C(=O)NCc2ccccn2)csc1C,-12,1.06
COc1ccccc1-n1nc(CC(C)C)nc1[C@H]1CCOC1,-3,0.26
Cc1cc(Cl)cc(C)c1NC(=O)N(C)CCCc1nccn1C,-7,1.27
CCOCC(=O)N(Cc1cnc2ccccn12)C1CC1,-3,0.44
CC(C)(C)c1cc(N2CCO[C@@H](CCF)C2)ncn1,6,-0.65
O=C(NC[C@]1(O)CCOC1)NC1CCCC1,-10,1.17
CCCc1cc(N2CCN(C(=O)c3cccc(N(C)C)c3)CC2)nc2nnc(C)n12,-5,0.63
Cc1cccc(-c2nc(=O)c(CCC(=O)N3CCCCC3)n[nH]2)c1,3,-0.35
O=C(CCC1CCCC1)N1CC(N(Cc2ccncc2)CC2CC2)C1,-16,3.04
COc1ccc(OC)c(CNC(=O)C2CCN(S(=O)(=O)c3ccc4c(ccn4C)c3)CC2)c1,-19,2.98
